# Screen size: about 310,000 compounds; about 2,200 (0.71%) showed an effect of 50% or more. Effects have a minus sign here. The list shows a part of the results.
# Target: human ether-à-go-go-related gene (hERG) potassium channel (human, UniProt Q12809)
# Assay: primary screen, population patch clamp on CHO cells stably expressing hERG
# Sequence of human ether-à-go-go-related gene (hERG) potassium channel (Q12809 whole entry, looked up): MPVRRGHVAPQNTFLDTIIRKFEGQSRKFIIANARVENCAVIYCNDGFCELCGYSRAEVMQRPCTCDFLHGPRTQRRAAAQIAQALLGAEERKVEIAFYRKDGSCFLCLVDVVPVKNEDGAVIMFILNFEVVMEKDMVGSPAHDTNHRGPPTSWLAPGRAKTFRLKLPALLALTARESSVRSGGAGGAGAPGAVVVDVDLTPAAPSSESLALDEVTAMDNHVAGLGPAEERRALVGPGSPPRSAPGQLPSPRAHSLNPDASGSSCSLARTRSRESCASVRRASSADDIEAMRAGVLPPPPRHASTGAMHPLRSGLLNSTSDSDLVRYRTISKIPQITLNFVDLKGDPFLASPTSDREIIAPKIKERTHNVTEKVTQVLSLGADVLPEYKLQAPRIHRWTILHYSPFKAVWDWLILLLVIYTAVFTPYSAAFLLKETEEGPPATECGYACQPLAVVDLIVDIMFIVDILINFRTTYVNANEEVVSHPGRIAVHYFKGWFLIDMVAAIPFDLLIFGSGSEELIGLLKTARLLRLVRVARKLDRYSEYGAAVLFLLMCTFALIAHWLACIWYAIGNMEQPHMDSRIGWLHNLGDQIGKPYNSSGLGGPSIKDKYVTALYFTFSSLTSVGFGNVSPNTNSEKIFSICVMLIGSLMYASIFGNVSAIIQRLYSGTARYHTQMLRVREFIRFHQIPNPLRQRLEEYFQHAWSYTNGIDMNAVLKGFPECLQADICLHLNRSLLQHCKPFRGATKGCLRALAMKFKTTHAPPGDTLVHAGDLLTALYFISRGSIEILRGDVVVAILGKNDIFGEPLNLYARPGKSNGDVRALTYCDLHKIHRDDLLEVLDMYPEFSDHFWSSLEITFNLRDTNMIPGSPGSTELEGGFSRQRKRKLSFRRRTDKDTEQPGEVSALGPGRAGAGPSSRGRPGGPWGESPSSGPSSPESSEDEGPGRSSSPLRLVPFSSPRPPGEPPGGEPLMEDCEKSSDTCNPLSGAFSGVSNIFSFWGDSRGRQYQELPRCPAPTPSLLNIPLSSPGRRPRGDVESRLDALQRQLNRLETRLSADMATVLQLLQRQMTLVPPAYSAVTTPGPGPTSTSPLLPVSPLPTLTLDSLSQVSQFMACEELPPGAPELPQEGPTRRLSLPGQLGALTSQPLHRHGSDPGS
row,Compound,"hERG current change (%, negative = inhibition) at 1uM [%]"
1,COCCCn1c(=O)c2sccc2n(Cc2cccc(C)c2)c1=O,14.3
2,CCN(CC)C(=O)COc1coc(CN2CCN(Cc3ccccc3)CC2)cc1=O,8.33
3,Cc1ccc(NC(=O)c2cc(-c3ccc(C)c(C)c3O)n[nH]2)cc1C,14
4,COc1ccccc1CNC(=O)C1COc2ccccc2O1 (centres unmarked),2.38
5,COc1cc(CN(C(=O)c2cccs2)C2CCS(=O)(=O)C2)cc(OC)c1OC (centres unmarked),14.7
6,c1ccc(-c2ccc(CN3C[C@@H]4C(c5ccccc5)C5(c6cccnc6)CC4(C5)[C@H]3c3ccccc3)cc2)cc1 (some centres unmarked),6.14
7,O=C(Cn1cnc2ccccc2c1=O)NCCC(=O)N1CCN(c2ccccc2)CC1,2.77
8,CCOc1ccccc1NC(=O)NCc1cccnc1,10.5
9,CCCC(=O)N1CCc2[nH]c3ccccc3c2C1,9.1
10,Cc1ccc(C(=O)Oc2ccc(Cl)c3cccnc23)cc1[N+](=O)[O-],15
11,CC1(C)CC(=O)C2=C(C1)NC(=O)NC2c1ccc(Cl)cc1 (centres unmarked),18.9
12,CCN(C(=O)COC(=O)/C=C/c1ccccc1[N+](=O)[O-])C1CCS(=O)(=O)C1 (centres unmarked),11.8
13,CC12CCC(=O)N1C(C(=O)NCc1ccccc1F)CS2 (centres unmarked),12.2
14,COc1ccc(N2C(=O)NC(NC(=O)c3ccncc3)(C(F)(F)F)C2=O)cc1 (centres unmarked),-9.46
15,COc1ccc(/C=N\NC(=O)/C(=C\Nc2nccc(C)n2)NC(=O)c2ccccc2)cc1,4.94
16,CCc1cc2c(cc3c(=O)n(CC(=O)NCCCN4CCCCCC4)nc(CC)n32)s1,-18.4
17,Cc1cc(C)c2c(N)c(C(=O)Nc3ncc(C)s3)sc2n1,1.63
18,Cc1ccc(-n2cc(C(=O)c3ccc(F)cc3)nn2)cc1Cl,8.64
19,C/C(=N\NC(=S)Nc1cccc(C)c1)c1cccc(N)c1,19.2
20,C/C=C(\C)C(=O)OC(C)(C)[C@H]1Cc2cc3ccc(=O)oc3cc2O1,0.146
21,C=CCNC(=O)/C(=C\c1ccco1)NC(=O)c1ccco1,18.6
22,OCC1(Cc2ccccc2)CCN(C2CCN(c3ccc(F)c(F)c3)CC2)CC1,-124

row,Compound,"hERG current change (%, negative = inhibition) at 1uM [%]"
1,CC(C)Oc1ccc(CCc2n[nH]c(=S)n2Cc2ccccc2)cc1,15.1
2,O=C(O)CC/C(=C\c1cccc(NC(=O)c2ccccc2Cl)c1)c1nc2ccccc2s1,-0.661
3,O=Cc1sc(=O)n(Cc2cccc(C(=O)O)c2)c1Cl,6.31
4,O=C(CN1C(=O)NC2(CCc3ccccc32)C1=O)c1ccc(Br)s1 (centres unmarked),-0.158
5,CN1C(=O)c2ccc(NC(=O)c3cccc4ccccc34)cc2C1=O,14.2
6,O=C(CC1Nc2cccc3cccc(c23)NC1=O)Nc1ccc(F)cc1 (centres unmarked),-9.16
7,O=C(/C=C/c1ccccc1Cl)OCC(=O)c1ccc[nH]1,5.37
8,Nc1ncccc1C(=O)OCC(=O)N1CCN(S(=O)(=O)c2ccc(Cl)cc2)CC1,2.48
9,COc1ccc(C2=NCCn3nc4cc(OC)ccc4c32)cc1,14.5
10,O=C(/C=C/c1ccc(Br)cc1)c1ccc(NC2=NCCCS2)cc1,8
11,O=C(/C=C/c1ccccc1)N1CCN(c2cccc(Cl)n2)CC1,3.21
12,Cc1ccc(CNC(=O)C2CCN(c3nn4c(=O)cc(C)nc4s3)CC2)cc1,-0.776
13,CCOc1ccc(C2/C(=C(/O)c3ccc(OC)cc3)C(=O)C(=O)N2c2cc(C)on2)cc1OC (centres unmarked),8.38
14,CC(=O)Nc1ccc(N(C(=O)CNC(=O)c2cccs2)C(C(=O)NCC2CCCO2)c2ccccc2)cc1 (centres unmarked),13.3
15,CNC(=O)NC(=O)CSc1cccc(C(F)(F)F)c1,10.4
16,O=C1CCCC(=O)N1c1ccc(O)cc1,3.67
17,CCCCn1c(SCC(=O)N2CCCc3ccccc32)nc2c1c(=O)n(C)c(=O)n2C,-6.31
18,COC(=O)c1ccc(NCN2C(=O)C3C4CCC(C4)C3C2=O)cc1 (centres unmarked),-3.18
19,Cc1ccc(N(C)C(=O)C2CCN(S(=O)(=O)c3ccc4c(c3)oc(=O)n4C)CC2)cc1,6.89
20,CC(C)C(=O)NC(=S)Nc1ccc(S(=O)(=O)N(C)C)cc1,3.03
21,NC(=S)N/N=C/c1ccc(C23CC4CC(CC(C4)C2)C3)cc1,17.7
22,COc1ccc(/C=C/c2nnc(NC(=O)c3ccco3)s2)cc1,16.8

# Reference: publication PMC4336329 (PLoS ONE, 2015)
